# The whole screen tested about 350,000 compounds, of which about 9,900 (2.8%) were called active. Inconclusive means that the source gave no clear call. Such entries were picked first, then a sample of the others. The call rests on the fitted dose curve; in most records, active means well fitted activation curve with a large enough effect; inconclusive means small, poorly fitted or top-dose-only effect; inactive means no such curve, though single readings can be large or run the other way. No potency is given beside an inconclusive call; the fits are too rough.
# Experiment: A quantitative high throughput screen for small molecules that induce DNA re-replication in MCF 10a normal breast cells. Further: nearly all actives have a fitted effect of over 50% in size.
# Conditions: MCF 10A DNA re-replication, Hoechst nuclear intensity, 48 h; series mostly up to 46.1 µM
# Potency means the concentration at half of the fitted maximal effect; tags describe the fitted curve by direction and shape.
row,SMILES,Potency
1,Cc1cccc(C)c1NC(=S)N/N=C/c1ccccc1C(=O)O,"inconclusive [activator, single point]"
2,Cc1cc(C)c(NC(=O)CNC(=O)COC(=O)CNC(=O)c2ccc(Cl)cc2Cl)c(C)c1,inactive
3,COc1ccccc1NS(=O)(=O)c1ccc(C(=O)NCC2(N(C)C)CCCCC2)cc1,"inconclusive [activator, partial curve, poor fit]"
4,COc1cc(N=Nc2cccc(S(N)(=O)=O)c2)c2ccccc2c1N,"inconclusive [activator, partial curve, poor fit]"
5,C=CCOC(=O)C1=C[C@H](c2coc3ccccc3c2=O)C[C@H](OCc2ccc(CO)cc2)O1,inactive
6,NC(=O)CC(NC(=O)c1ccc(Br)cc1)c1ccc(N2CCN(c3ccc(F)cc3)CC2)c([N+](=O)[O-])c1 (stereo unspecified),"inconclusive [activator, single point]"
7,COc1ccccc1C(=O)C1CCCN(C(=O)Nc2ccccc2F)C1 (stereo unspecified),"inconclusive [activator, partial curve, poor fit]"
8,CC(C(=O)Nc1sc2c(c1C(=O)NCc1ccco1)CCCC2)N1C(=O)c2ccccc2C1=O (stereo unspecified),inactive
9,CCn1c(SCC(=O)n2c(C)c(C)c3ccccc32)nnc1-c1ccco1,"inconclusive [activator, single point]"
10,COc1ccccc1C(=O)N=c1sc2c(C)ccc(OC)c2n1C,"inconclusive [activator, single point]"
11,CCCc1nnc(NC(=O)CCC(=O)O)s1,"inconclusive [activator, single point]"
12,O=C(Nc1ccc2c(c1)OCCO2)c1cc2sccc2n1Cc1ccccc1,inactive
13,Clc1ccc2[nH]c3c(NCCCN4CCOCC4)ncnc3c2c1,"inconclusive [activator, partial curve, poor fit]"
14,O=C(O)CSc1c2ccccc2cc2ccccc12,"inconclusive [activator, single point]"
15,Cc1cc(C)n(-c2nc3ccccc3nc2N2CCN(C(=O)c3ccc(F)cc3)CC2)n1,"inconclusive [activator, single point]"
16,CC(=O)c1cccc(NCC(=O)N2CCN(S(=O)(=O)c3ccccc3)CC2)c1,inactive
17,Cc1cn(Cc2ccccc2)c(=O)[nH]c1=O,"inconclusive [activator, full curve, poor fit]"
18,Cc1ccc(C(=O)Nc2ccccc2N2CCOCC2)cc1S(=O)(=O)N1CCOCC1,"inconclusive [activator, single point]"
19,COc1ccc(/C=N/NC(=O)CCSc2nc3ccccc3s2)cc1OC,"inconclusive [activator, single point]"
20,CCOc1ccc(-n2c(=S)sc3c(=O)n(-c4ccccc4)c(SC)nc32)cc1,"inconclusive [activator, partial curve, poor fit]"
21,O=C(OCC(=O)N1CCCC1=O)c1nc(Cl)c(Cl)c(Cl)c1Cl,"inconclusive [activator, single point]"

row,SMILES,Potency
1,O=C(Nc1cccc(-c2ccc(N3CCOCC3)nn2)c1)c1ccccc1,inactive
2,CC(/C=N/Nc1nc2ccccc2[nH]1)=C\c1ccccc1,"inconclusive [activator, partial curve, poor fit]"
3,CCOc1ccc(C(=O)COC(=O)c2cccc(-n3cnnn3)c2)cc1,"inconclusive [activator, single point]"
4,Cc1nnc(SC(C)C(=O)Nc2sc3c(c2C#N)CCCC3)[nH]c1=O (stereo unspecified),"inconclusive [activator, partial curve, poor fit]"
5,NC1=NC(=O)/C(=C/c2ccc(Cl)cc2Cl)S1,"inconclusive [activator, single point]"
6,Cc1noc(/C=C/N(C)C)c1S(=O)(=O)N1CCCC(C(=O)N2CCc3ccccc32)C1 (stereo unspecified),"inconclusive [activator, partial curve, poor fit]"
7,CCCCn1c(-c2ccc(F)c(F)c2)nc2cc3[nH]c(=O)c(C(C)C)nc3cc21,active: 23.1 µM
8,O=C(c1cc(N2C(=O)C3C4CCC(C4)C3C2=O)ccc1Cl)N1CCCCCC1 (stereo unspecified),"inconclusive [activator, partial curve, poor fit]"
9,CC(C)c1ccc(NC(=S)Nc2ccc3cn[nH]c3c2)cc1,inactive
10,Cc1ccccc1CCNC(=O)C1CCC(=O)N(C2CCCCCC2)C1 (stereo unspecified),"inconclusive [activator, single point]"
11,CN(C)S(=O)(=O)c1ccc(N2CCCC2)c(C(=O)NCCc2ccc(F)cc2)c1,"inconclusive [activator, single point]"
12,CCN(CC)CCCn1c2c(c(SCC(=O)Nc3ccc(OC(F)(F)F)cc3)nc1=O)CCC2,"inconclusive [activator, single point]"
13,Cc1ccc(C(=O)C2CCN(CC(=O)Nc3ccc(N(C)C)cc3)CC2)cc1,inactive
14,CCOC(=O)C1=C(CSc2nc3c(cc2C#N)CN(C)CC3)OC(N)=C(C#N)C1c1ccncc1 (stereo unspecified),"inconclusive [activator, single point]"
15,CCc1n[nH]c(=S)n1/N=C/c1ccccn1,inactive
16,CCN(CC)S(=O)(=O)c1cc(NC(=S)NC(=O)C2CCCC2)ccc1C,"inconclusive [activator, single point]"
17,NC(=O)CC(NC(=O)c1ccccc1)c1ccc(NC2CCC2)c([N+](=O)[O-])c1 (stereo unspecified),"inconclusive [activator, partial curve, poor fit]"
18,CCOc1ccc(NS(=O)(=O)c2cnc(Cl)c(Cl)c2)cc1,active: 4.11 µM
19,COc1ccc(C(=O)NCc2ccc(Cl)cc2)cc1S(=O)(=O)N1CCCC1,"inconclusive [activator, single point]"
20,COc1cc(NC(=O)c2cccc(COCC(F)(F)C(F)F)c2)cc(OC)c1OC,"inconclusive [activator, full curve, poor fit]"

# From PubChem BioAssay AID624296 (National Center for Advancing Translational Sciences (NCATS), 2012)
